# According to EP4814006A2 (NAVIGO PROTEINS GMBH, dated 2026):
# T1: VEGF (vascular endothelial growth factor) (human, UniProt P15692-4 27-191, limits assumed)
# T1 construct: also called VEGF-A
# T1 sequence (looked up): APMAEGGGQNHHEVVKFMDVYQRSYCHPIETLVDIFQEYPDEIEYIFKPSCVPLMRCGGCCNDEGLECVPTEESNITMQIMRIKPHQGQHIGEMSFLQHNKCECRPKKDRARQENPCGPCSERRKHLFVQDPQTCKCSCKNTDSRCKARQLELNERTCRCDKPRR
# Molecular target: T1, VEGF (vascular endothelial growth …)
# Assay: ELISA per the heading of Example 3; the format of the VEGF assay is not described
row,EC50 [nM],Binder
1,< 1,"Fusion protein SEQ ID NO: 5 (Aflibercept fused through a 15 amino acid GS-linker to the hyaluronic acid binding protein of SEQ ID NO: 1) (Fc fusion, It forms a homodimer and was expressed in HEK293 cells) SDTGRPFVEMYSEIPEIIHMTEGRELVIPCRVTSPNITVTLKKFPLDTLIPDGKRIIWDSRKGFIISNATYKEIGLLTCEATVNGHLYKTNYLTHRQTNTIIDVVLSPSHGIELSVGEKLVLNCTARTELNVGIDFNWEYPSSKHQHKKLVNRDLKTQSGSEMKKFLSTLTIDGVTRSDQGLYTCAASSGLMTKKNSTFVRVHEK[sequence of human IgG1 Fc not given][sequence of about 200 residues not given]"
2,< 1,"Fusion protein SEQ ID NO: 6 (Aflibercept fused through a 15 amino acid GS-linker to the hyaluronic acid binding protein of SEQ ID NO: 2) (Fc fusion, It forms a homodimer and was expressed in HEK293 cells) SDTGRPFVEMYSEIPEIIHMTEGRELVIPCRVTSPNITVTLKKFPLDTLIPDGKRIIWDSRKGFIISNATYKEIGLLTCEATVNGHLYKTNYLTHRQTNTIIDVVLSPSHGIELSVGEKLVLNCTARTELNVGIDFNWEYPSSKHQHKKLVNRDLKTQSGSEMKKFLSTLTIDGVTRSDQGLYTCAASSGLMTKKNSTFVRVHEK[sequence of human IgG1 Fc not given][sequence of about 200 residues not given]"
